Data published in PMC4336329 (PLoS ONE, 2015).
Out of some 310,000 compounds screened, about 2,200 (0.71%) showed an effect of 50% or more. Effects have a minus sign here. The list shows a part of the results.

These compounds were tested against human ether-à-go-go-related gene (hERG) potassium channel (human, UniProt Q12809) (assay: primary screen, population patch clamp on CHO cells stably expressing hERG).
human ether-à-go-go-related gene (hERG) potassium channel, sequence (Q12809 whole entry, looked up): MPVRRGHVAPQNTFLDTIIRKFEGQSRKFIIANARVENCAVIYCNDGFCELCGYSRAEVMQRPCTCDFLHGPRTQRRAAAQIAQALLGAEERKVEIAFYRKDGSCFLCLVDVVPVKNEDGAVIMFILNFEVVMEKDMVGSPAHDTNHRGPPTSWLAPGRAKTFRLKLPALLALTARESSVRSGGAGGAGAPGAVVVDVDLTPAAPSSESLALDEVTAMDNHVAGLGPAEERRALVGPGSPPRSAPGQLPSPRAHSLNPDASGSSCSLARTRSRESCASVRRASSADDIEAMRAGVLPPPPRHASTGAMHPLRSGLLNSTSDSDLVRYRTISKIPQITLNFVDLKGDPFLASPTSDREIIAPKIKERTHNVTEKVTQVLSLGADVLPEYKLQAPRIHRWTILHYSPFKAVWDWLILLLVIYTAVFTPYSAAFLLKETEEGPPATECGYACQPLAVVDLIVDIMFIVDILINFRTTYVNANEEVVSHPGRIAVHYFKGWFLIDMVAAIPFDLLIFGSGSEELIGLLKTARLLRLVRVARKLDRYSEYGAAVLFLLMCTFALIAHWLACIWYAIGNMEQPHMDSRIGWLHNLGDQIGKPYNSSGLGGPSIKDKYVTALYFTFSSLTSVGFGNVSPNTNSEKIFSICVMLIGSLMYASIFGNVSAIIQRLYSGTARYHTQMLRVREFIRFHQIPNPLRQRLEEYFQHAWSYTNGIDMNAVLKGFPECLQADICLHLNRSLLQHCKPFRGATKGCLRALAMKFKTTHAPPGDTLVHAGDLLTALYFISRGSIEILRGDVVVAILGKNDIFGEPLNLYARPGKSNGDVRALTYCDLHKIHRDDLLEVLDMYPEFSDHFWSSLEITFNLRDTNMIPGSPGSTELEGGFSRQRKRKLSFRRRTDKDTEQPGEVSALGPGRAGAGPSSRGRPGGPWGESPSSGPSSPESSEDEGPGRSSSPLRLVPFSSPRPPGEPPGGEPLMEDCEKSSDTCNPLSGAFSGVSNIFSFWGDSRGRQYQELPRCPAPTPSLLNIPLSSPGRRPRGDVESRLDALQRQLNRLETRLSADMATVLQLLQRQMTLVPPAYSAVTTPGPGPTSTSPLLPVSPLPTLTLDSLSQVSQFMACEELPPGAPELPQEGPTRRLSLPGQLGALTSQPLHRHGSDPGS
For `O=c1[nH]c(=O)n(Cc2ccccc2Cl)c(O)c1C=Nc1ccc(F)cc1`, the “hERG current change (%, negative = inhibition) at 1uM” value was 5.87%.
`CC(=O)N1N=C(c2ccccc2)CC1c1ccccc1` (stereo not drawn) was tested, and the “hERG current change (%, negative = inhibition) at 1uM” value was 5.69%.
In the case of `Cc1cc(Br)cc2cn[nH]c12`, the “hERG current change (%, negative = inhibition) at 1uM” value is reported as 12.5%.
In the case of `COC(=O)C1=C(O)/C(=C\c2sccc2C)N=C1C`, the “hERG current change (%, negative = inhibition) at 1uM” value is reported as 12.4%.
`CCc1nnc(N/N=C/c2c(C)[nH]c3ccccc23)n1N.Cl` was tested, and the “hERG current change (%, negative = inhibition) at 1uM” value was 28.8%.
With `COC(=O)c1ccc(CSCc2ccc(C#N)cc2)cc1` the “hERG current change (%, negative = inhibition) at 1uM” value was 16.3%.
`O=C(Cc1ccccc1[N+](=O)[O-])N1CCN(c2ccc(F)cc2)CC1` was tested, and the “hERG current change (%, negative = inhibition) at 1uM” value was 11%.
`C=CCc1cc(/C=C2/NC(=S)NC2=O)cc(OC)c1O` was tested, and the “hERG current change (%, negative = inhibition) at 1uM” value was 10.1%.
With `COC(=O)/C=C1/S/C(=N/NC(=O)c2ccc(OC)cc2)NC1=O` the “hERG current change (%, negative = inhibition) at 1uM” value was 14.6%.
In the case of `O=C(CCCCCNC(=O)N1CCn2c1nc1ccccc12)N[C@H](C(=O)O)c1ccccc1`, the “hERG current change (%, negative = inhibition) at 1uM” value is reported as 18%.
`CCOC(=O)c1cnc(-n2nc(C)cc2C)nc1N1CCOCC1` was tested, and the “hERG current change (%, negative = inhibition) at 1uM” value was 1.69%.
`CCCCn1c(SCC(=O)N2CCOCC2)nnc1-c1ccoc1C` was tested, and the “hERG current change (%, negative = inhibition) at 1uM” value was 5.74%.
In the case of `COC(=O)c1ccccc1N(C)C(=O)C12CCC(C)(C(=O)O1)C2(C)C` (stereo not drawn), the “hERG current change (%, negative = inhibition) at 1uM” value is reported as 16.6%.
For `O=C(O)Cn1nc(-c2ccc(Cl)cc2)ccc1=O`, the “hERG current change (%, negative = inhibition) at 1uM” value was 10.5%.
`Cc1ccc(NC(=O)N2CCC(c3nc4c(nnn4Cc4cccc(Cl)c4)c(=O)[nH]3)CC2)cc1` was tested, and the “hERG current change (%, negative = inhibition) at 1uM” value was 1.19%.
In the case of `CCS(=O)(=O)N1CCC(C(=O)NCCc2ccc(C)cc2)CC1`, the “hERG current change (%, negative = inhibition) at 1uM” value is reported as 15.3%.
With `COc1ccc(-c2cc3ncnc(Cl)c3s2)cc1` the “hERG current change (%, negative = inhibition) at 1uM” value was 18%.
With `CCC(Oc1nc2ccccc2nc1-c1ccccc1NC(C)=O)C(=O)c1ccccc1` (stereo not drawn) the “hERG current change (%, negative = inhibition) at 1uM” value was -2.71%.
`S=C1NCN(Cc2ccco2)CN1c1ccccc1` was tested, and the “hERG current change (%, negative = inhibition) at 1uM” value was 14.5%.
`Cc1ccc(C(=O)N/C(=C/c2ccc(-c3cccc([N+](=O)[O-])c3)o2)C(=O)NC(C)C)cc1` was tested, and the “hERG current change (%, negative = inhibition) at 1uM” value was 10.1%.
With `COc1ccccc1N1CCN(C(=O)CCS(=O)(=O)c2ccc3c(c2)NC(=O)C(C)S3)CC1` (stereo not drawn) the “hERG current change (%, negative = inhibition) at 1uM” value was 14.3%.
In the case of `C=C(C)c1cccc(C(C)(C)NC(=O)N2CCC(C)CC2)c1`, the “hERG current change (%, negative = inhibition) at 1uM” value is reported as 12.6%.
In the case of `COc1ccc(-n2cc(CN(C)C(C)c3ccncn3)c(-c3cccc(F)c3)n2)cc1` (stereo not drawn), the “hERG current change (%, negative = inhibition) at 1uM” value is reported as -6.58%.
In the case of `CN1C(=O)/C(=C/c2cccc(Cl)c2)Sc2ccc(C(=O)N3CCCC3)cc21`, the “hERG current change (%, negative = inhibition) at 1uM” value is reported as 0.412%.
In the case of `COc1ccc(Nc2ccc([N+](=O)[O-])c3nonc23)c(OC)c1`, the “hERG current change (%, negative = inhibition) at 1uM” value is reported as 14.2%.
With `CCOC(=O)c1ccc(NS(=O)(=O)c2ccc3c(c2)NC(=O)CCS3)cc1` the “hERG current change (%, negative = inhibition) at 1uM” value was 15.6%.
In the case of `CCOC(=O)c1ccc(NC(=S)N2CCN(c3ccc(N4CCOCC4)nn3)CC2)cc1`, the “hERG current change (%, negative = inhibition) at 1uM” value is reported as 5.86%.
For `Cc1ccc2nc(C(=O)N3CCCC(Nc4ccc(F)cc4)C3)cn2c1` (stereo not drawn), the “hERG current change (%, negative = inhibition) at 1uM” value was 10.7%.
With `Cl.OC(Cc1ccccc1)(c1ccccc1)C1CN2CCC1CC2` (stereo not drawn) the “hERG current change (%, negative = inhibition) at 1uM” value was -23.8%.
With `Cc1ccc(NC(=O)c2ccc3c(c2)[nH]c(=O)n3C(C)C)cc1` the “hERG current change (%, negative = inhibition) at 1uM” value was 9.8%.
`CCOc1ccc(NS(=O)(=O)c2ccc(NC(=O)C3CCCO3)cc2)cc1` (stereo not drawn) was tested, and the “hERG current change (%, negative = inhibition) at 1uM” value was 18.1%.
For `Cc1ccc(NC(=O)c2ccc(COc3ccccc3[N+](=O)[O-])o2)nc1`, the “hERG current change (%, negative = inhibition) at 1uM” value was 10.4%.
In the case of `Cc1ccc(NC(=O)N2CCSc3ccccc32)cc1`, the “hERG current change (%, negative = inhibition) at 1uM” value is reported as 7.09%.
With `C=CCN1C(=O)/C(=C/c2ccc(N3CCOCC3)o2)C(=O)NC1=S` the “hERG current change (%, negative = inhibition) at 1uM” value was -2.59%.
For `COc1ccc(-c2ccc(N(C)C)cc2)cc1[C@H]1[C@H]2C=CC[C@@H](C)[C@@H]2C(=O)N1Cc1ccccc1`, the “hERG current change (%, negative = inhibition) at 1uM” value was 12.1%.
For `O=P(O)(O)O.c1ccc(CN(CC2=NCCN2)c2ccccc2)cc1`, the “hERG current change (%, negative = inhibition) at 1uM” value was 7.67%.
With `O=C(O)Cn1cnc2scc(-c3ccccc3)c2c1=O` the “hERG current change (%, negative = inhibition) at 1uM” value was 18.3%.
In the case of `COc1ccc(C(C)=O)cc1CSCCC(=O)O`, the “hERG current change (%, negative = inhibition) at 1uM” value is reported as 15%.
In the case of `CCOc1ccc(S(=O)(=O)N2CC(=O)Nc3ccccc32)cc1C#N`, the “hERG current change (%, negative = inhibition) at 1uM” value is reported as 6.22%.
In the case of `CN(CC(=O)N1CCN(c2ncccn2)CC1)S(=O)(=O)c1ccc(Cl)cc1`, the “hERG current change (%, negative = inhibition) at 1uM” value is reported as 2.66%.
With `Cc1cc(=O)[nH]c(SCc2cccc3ccccc23)n1` the “hERG current change (%, negative = inhibition) at 1uM” value was 18.5%.
For `CCOC(=O)c1ccc(N/C(=N/S(=O)(=O)c2ccccc2)c2ccccc2)cc1`, the “hERG current change (%, negative = inhibition) at 1uM” value was 0.804%.
`Cc1ccc(NC(=O)c2cc(NC(=O)CCC(=O)O)ccc2N2CCCCC2)cc1` was tested, and the “hERG current change (%, negative = inhibition) at 1uM” value was 11.9%.
In the case of `O=c1[nH]c2c(c(=O)n1Cc1ccccc1)CCC2`, the “hERG current change (%, negative = inhibition) at 1uM” value is reported as 7.82%.
With `Cc1cc(C)c(NC(=O)CSc2nc3ccc(N4C(=O)c5ccccc5C4=O)cc3s2)c(C)c1` the “hERG current change (%, negative = inhibition) at 1uM” value was 17.9%.
For `CCc1cccc(C)c1NC(=O)CCCSc1nc2ccccc2s1`, the “hERG current change (%, negative = inhibition) at 1uM” value was 14.3%.
`NNC(=O)c1cc2cc(Oc3ccccc3)ccc2[nH]1` was tested, and the “hERG current change (%, negative = inhibition) at 1uM” value was 14.2%.
For `COc1ccc(S(=O)(=O)Nc2ccc(S(=O)(=O)N3CCCCC3)cc2)cc1`, the “hERG current change (%, negative = inhibition) at 1uM” value was 4.23%.
For `Cc1ccc(Nc2nc(CSc3nnnn3-c3ccccc3)cs2)cc1`, the “hERG current change (%, negative = inhibition) at 1uM” value was 10.2%.
With `Cc1ccc(-c2nc(CS(=O)CC(=O)N3CCN(c4ncccn4)CC3)c(C)o2)cc1` (stereo not drawn) the “hERG current change (%, negative = inhibition) at 1uM” value was -23.6%.
For `Cc1ccc(C(=O)c2ccc([N+](=O)[O-])cc2)cc1`, the “hERG current change (%, negative = inhibition) at 1uM” value was 14.2%.
With `CCC(C)NCCCOc1c(C)cc(C)cc1Br.O=C(O)C(=O)O` (stereo not drawn) the “hERG current change (%, negative = inhibition) at 1uM” value was 2.26%.
For `CC(C)CCN1CCN(C2CCN(c3ccc4c(c3)OCO4)CC2)CC1CCO` (stereo not drawn), the “hERG current change (%, negative = inhibition) at 1uM” value was 3.4%.
`Cc1cccc(Nc2nnc(SC3CCOC3=O)s2)c1C` (stereo not drawn) was tested, and the “hERG current change (%, negative = inhibition) at 1uM” value was 9.16%.
In the case of `CC(=O)c1cccc(NC(=O)Nc2csc3c2CCCC3)c1`, the “hERG current change (%, negative = inhibition) at 1uM” value is reported as 7.58%.
For `CCC(CC)NC(=O)COC(=O)c1cc(Br)ccc1Cl`, the “hERG current change (%, negative = inhibition) at 1uM” value was 12.5%.
`CC(=O)N1CCN(C(=S)Nc2ccc(SC(F)F)cc2)CC1` was tested, and the “hERG current change (%, negative = inhibition) at 1uM” value was -7.06%.
